Reference: PubChem BioAssay AID488969 (Vanderbilt High Throughput Screening Facility, 2010)
The full ranking holds about 110,000 compounds; the median of “z-score” is about -0.1, and the highest 2% start at about 2. The list shows a part of the results. Calls of active or inactive are those of the source.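 Rule for the calls: active = z-score in the third read window above 3 or below -3; inactive = the rest.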

target: Metabotropic glutamate receptor 8 (Rattus norvegicus) (UniProt P70579); experiment: mGluR8 Gi/Go-coupled signaling modulation – cell-based, rat, thallium flux, HTS, primary screen (AID 488969); conditions: HEK293 rat mGluR8, GIRK (G protein-gated inwardly rectifying potassium channel) thallium flux, FluoZin2; at 10 µM; stronger effect = higher value; submaximal glutamate (EC20) added with thallium
Sequence of UniProt P70579 (P70579 whole entry, looked up): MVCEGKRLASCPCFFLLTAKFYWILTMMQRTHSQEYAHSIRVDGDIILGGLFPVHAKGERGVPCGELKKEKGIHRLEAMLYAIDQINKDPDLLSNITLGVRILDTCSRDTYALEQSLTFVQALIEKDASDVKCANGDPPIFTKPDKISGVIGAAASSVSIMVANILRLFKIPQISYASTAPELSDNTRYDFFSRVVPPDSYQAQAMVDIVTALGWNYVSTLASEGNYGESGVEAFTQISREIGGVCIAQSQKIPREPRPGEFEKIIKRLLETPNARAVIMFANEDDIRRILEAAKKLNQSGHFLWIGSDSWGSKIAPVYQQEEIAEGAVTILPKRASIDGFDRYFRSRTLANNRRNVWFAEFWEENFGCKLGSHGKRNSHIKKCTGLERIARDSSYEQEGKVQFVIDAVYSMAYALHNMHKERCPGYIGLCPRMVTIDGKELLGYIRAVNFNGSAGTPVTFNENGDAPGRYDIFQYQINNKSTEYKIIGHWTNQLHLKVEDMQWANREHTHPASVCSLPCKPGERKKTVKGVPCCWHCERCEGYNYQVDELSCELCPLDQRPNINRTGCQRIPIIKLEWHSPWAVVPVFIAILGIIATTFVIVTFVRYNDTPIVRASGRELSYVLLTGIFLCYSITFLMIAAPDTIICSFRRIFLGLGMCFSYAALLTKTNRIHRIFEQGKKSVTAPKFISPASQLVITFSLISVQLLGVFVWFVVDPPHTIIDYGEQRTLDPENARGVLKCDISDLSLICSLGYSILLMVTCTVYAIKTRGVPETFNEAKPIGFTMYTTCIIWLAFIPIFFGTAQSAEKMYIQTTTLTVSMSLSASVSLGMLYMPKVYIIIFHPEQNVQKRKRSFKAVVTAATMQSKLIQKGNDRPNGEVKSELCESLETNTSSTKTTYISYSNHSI

| SMILES | z-score |
| --- | --- |
| COc1cccc(N2CCN(C(=O)c3[nH]c(C)c(C(C)=O)c3C)CC2)c1 | 0.189 |
| COc1ccc(C(=O)N2CC3(CC(c4cccc([N+](=O)[O-])c4)=NO3)C[C@H]2C(=O)NCC(N)=O)cc1 (some centres undefined) | -0.293 |
| O=C(CC12CC3CC(CC(C3)C1)C2)Nc1cccc2ncccc12 | -0.494 |
| O=C(COc1ccc(Br)cc1Br)NC(=S)N1CCCc2ccccc21 | active: 4.66 |
| C/C(CC(=O)Nc1ccccc1[N+](=O)[O-])=N\NC(=O)COc1ccccc1C | 0.136 |
| CC(=O)N1CCc2ccc(S(=O)(=O)N3CCN(C)CC3)cc21 | -0.0793 |
| O=C(c1ccccc1)c1ccc(Oc2ncccn2)cc1 | -0.321 |
| Cc1ccc(NS(=O)(=O)c2ccc(C3CCCCC3)cc2)cc1 | -0.718 |
| CCC(C)NC(=O)/C=C1\Sc2ccccc2NC1=O (centres undefined) | -0.156 |
| O=C(O)CSc1nnc(CNc2ccc(Cl)cc2)n1Cc1ccccc1 | -0.133 |
| O=C(NC(=S)Nc1ccc(N2CCCC2)cc1)c1ccccc1[N+](=O)[O-] | 0.0592 |
| CCn1cc(C(=O)OCc2ccccc2)c(=O)c2ccc(C)nc21 | -0.639 |
| COc1ccc(C(c2nnnn2C2CCCC2)N2CCN(c3ccccc3)CC2)cc1 (centres undefined) | -0.12 |
| COC(=O)c1cc(C(=O)OCC(=O)Nc2ccccc2OC(F)F)cc([N+](=O)[O-])c1 | -0.452 |
| CN(C)/C=N/c1c(C#N)cnn1-c1ccccc1 | -0.282 |
| Cc1nc(N2CCCCC2)c2ccsc2n1 | -0.225 |
| O=C(OCCN1C(=O)c2ccccc2C1=O)c1cc(S(=O)(=O)N2CCOCC2)ccc1Cl | -0.0573 |
| Cc1ccc(C)c(NC(=O)CN2C(=O)CNC2=O)c1 | -0.231 |
| CCOC(=O)c1nn(-c2cccc(Cl)c2)c2nc(CC(C)C)c(C#N)c(=O)n12 | -0.17 |
| S=C(Nc1ccc2c(c1)OCO2)NC1CCN(Cc2ccccc2)CC1 | 0.66 |
| O=C(Cn1c(=O)c(=O)n(Cc2ccccc2)c2ccc(Cl)cc21)Nc1cccc(F)c1 | -0.38 |
| O=C1CC(c2ccccc2)CC(O)=C1C=NCCCO (centres undefined) | 0.0641 |
| C=CCNC(=O)c1ccccc1NS(=O)(=O)c1ccccc1 | 0.059 |

| SMILES | z-score |
| --- | --- |
| Cc1ccc(C(=O)NCc2ccccn2)c(Cl)c1 | -0.0826 |
| COn1c(-n2nc(C)cc2C)nc2ccccc2c1=O | 0.141 |
| CCOC(=O)C(NCc1ccc2c(c1)OCO2)(NC(=O)c1ccccc1)C(F)(F)F (centres undefined) | -0.325 |
| COC(=O)c1nnn(-c2nonc2N)c1CSCCO | 0.0675 |
| COc1cc(/C=N/NC(=O)/C(=C\c2ccc([N+](=O)[O-])cc2)NC(=O)c2ccccc2)cc(OC)c1O | 0.215 |
| Cc1ccc(OCC(=O)N/N=C\c2ccco2)c(C)c1 | -0.0482 |
| CCCn1cc(NC(=O)c2cc3n(n2)C(C(F)(F)F)CC(c2ccccc2)N3)cn1 (centres undefined) | 0.179 |
| COc1ccc(CN(C(=O)c2ccccc2OC)C2CCS(=O)(=O)C2)cc1 (centres undefined) | -0.139 |
| c1ccc2[nH]c(CN3CCOCC3)nc2c1 | -0.119 |
| CCC(c1nnnn1C(C)(C)C)N(Cc1cc2cccc(C)c2n2nnnc12)C1CCCC1 (centres undefined) | 0.0383 |
| Cc1nc2c(C)cccc2cc1C(=O)N/N=C/c1ccc(O)cc1 | -0.281 |
| NC(=O)C(c1ccccc1)C1CCCC1 (centres undefined) | 0.327 |
| COc1nc(N/N=C/c2ccc(-c3ccccc3[N+](=O)[O-])o2)nc(N2CCOCC2)n1 | -0.309 |
| CCc1cc2c(NCCC(=O)O)nc(C)nc2s1 | -0.427 |
| CCCN1C(=O)/C(=C\C=C2/C=CN(CC)c3ccccc32)SC1=S | 1.5 |
| Cn1c(=O)c2c(nc(Oc3ccc(-c4ccccc4)cc3)n2C)n(C)c1=O | 0.475 |
| Cc1ccc(NC(=O)Nc2nnc(CSCCOc3ccc(Cl)cc3)s2)cc1 | 0.0698 |
| Cc1ccc(F)cc1NC(=O)C1CCCN(c2ncccn2)C1 (centres undefined) | -0.193 |
| CCOC(=O)Cc1nn(C)c(=O)c2ccccc12 | 0.371 |
| COC(=O)[C@H](C)NC(=O)NCc1ccccc1F | 0.611 |
| Cc1cccn2c(=O)c3cc(C#N)c(=N)n(CC4CCCO4)c3nc12 (centres undefined) | -0.508 |
| Cc1ccc(C(=O)C[n+]2cc(Br)cc(Br)c2)cc1[N+](=O)[O-] | -0.127 |
| N#C/C(=C\c1ccco1)C(=O)NCC1CCCO1 (centres undefined) | -0.0138 |

| SMILES | z-score |
| --- | --- |
| CCOC(=O)c1c(CC(C)C)csc1NC(=O)C(C)C | -0.224 |
| Cc1ccc2c(c1)NC(=O)C(CC(=O)NCCCN1CCN(c3cc(C)ccc3C)CC1)O2 (centres undefined) | -0.26 |
| O=C(NC1(C(F)(F)F)NC(=O)N(c2ccc(F)cc2)C1=O)c1ccncc1 (centres undefined) | 0.0159 |
| CCOC(=O)CNC(=O)CSc1ncnc2c1nnn2-c1ccc(F)cc1 | -0.262 |
| Cc1cc(C)n(-c2nc(NCC(C)O)c3c4c(sc3n2)COC(C)(C)C4)n1 (centres undefined) | -0.604 |
| O=C(NC1CC2CCC(C1)N2C(=O)NCc1ccccc1)C1CC1 (centres undefined) | 0.299 |
| COc1ccccc1N1CCN(S(=O)(=O)c2cccc(F)c2)CC1 | -0.494 |
| O=C(CN1CCN(CCN2C(=O)c3cccc4cccc(c34)C2=O)CC1)c1ccc(F)cc1 | -0.49 |
| COC(=O)C(NC(=O)c1ccccc1)=C1CCCCC1 | -0.971 |
| Cc1ccccc1N=C1N=C(N)c2ccccc21 | -0.356 |
| COc1ccc(Cc2nnc(NC(=O)CSc3ccccc3)s2)cc1OC | 0.209 |
| CCCN(CCC)C(=O)CC(c1ccccc1)c1cc(Br)ccc1O (centres undefined) | -0.0728 |
| CN(C)/C=N/c1sccc1C(N)=O | -0.0165 |
| COCCNC(=O)CCCC(=O)NCCOC | -0.0363 |
| CC1(C(=O)O)CCC(C(=O)Nc2ccccc2O)C1(C)C (centres undefined) | -0.0754 |
| O=C(C1CCC(=O)N1Cc1ccccc1Cl)N1CCN(c2cccc(Cl)c2)CC1 (centres undefined) | -0.174 |
| O=C1CC(c2ccccc2)CC(O)=C1C=NCc1ccco1 (centres undefined) | 0.412 |
| COc1ccc(NC(=O)COC(=O)C2CCCCC2)c([N+](=O)[O-])c1 | 0.159 |
| Cc1ccc(C)c(S(=O)(=O)N/N=C/c2cccnc2)c1 | 0.433 |
| O=C1C(c2ccncc2)=C(O)c2ccccc21 | 0.157 |
| O=C(c1cc(C2CC2)on1)N1CCN(c2ccc(F)cc2)CC1 | 1.09 |
| COc1ccc(C/C(C)=N/NC(=S)Nc2ccccc2)cc1 | active: 5.19 |
| Cc1ccc(NC(=O)Cc2c(Cl)cccc2Cl)cc1S(=O)(=O)N(C)C | 1 |

| SMILES | z-score |
| --- | --- |
| COC(=O)COc1ccc(S(=O)(=O)NCc2ccncc2)cc1 | 0.037 |
| CC(Sc1nnc2ccccn12)C(=O)N1CCc2ccccc2C1 (centres undefined) | -0.0936 |
| NS(=O)(=O)c1ccc(NS(=O)(=O)c2ccc(NC(=O)c3ccc(-c4ccccc4)cc3)cc2)cc1 | -0.214 |
| O=[N+]([O-])c1ccc(O)c(NC(=S)Nc2ccccc2)c1 | -0.478 |
| Cn1cc(C(=O)N2CCc3ccccc32)cn1 | 0.708 |
| CCCOC(=O)/C(C)=N\NC(=O)c1ccco1 | -0.526 |
| CCCC(O)(CCC)C(=O)NN(C(=O)CCl)c1ccccc1 | -0.215 |
| CC(=O)c1cc(C#N)c(Oc2ccc(F)cc2)nc1C | -0.0776 |
| Cc1ccc(CNC(=O)CCC(=O)c2cccs2)cc1 | -0.0672 |
| CC(Sc1nncn1C)C(=O)Nc1nnc(-c2ccccc2)s1 (centres undefined) | 0.184 |
| COCCCNC(=O)c1cccc(OC)c1OC | 0.544 |
| N/C(Cn1nnc(-c2ccccc2)n1)=N\O | -0.0839 |
| CCN(CC)S(=O)(=O)c1ccc2oc(C(=O)N3CCOCC3)c(C)c2c1 | 0.216 |
| Cc1cccc(-c2nnc(SCCOc3ccc4c(C)cc(=O)oc4c3)o2)c1 | -0.0343 |
| CC(/C=C/c1ccccc1)=N\NC(=O)Cn1nc(C)cc1C | 0.481 |
| CCCCC(=O)NC1(C(F)(F)F)C(=O)Nc2c1c(=O)[nH]c(=O)n2Cc1ccco1 (centres undefined) | 0.27 |
| O=[N+]([O-])c1cc(/C=N/OCc2c(Cl)cccc2Cl)ccc1N1CCOCC1 | 0.476 |
| CCCCOc1ccc(C2CC(=O)NC2=O)cc1 (centres undefined) | 0.162 |
| COc1cc(/C=C(\C#N)C(=O)Nc2ccc(SC(F)F)cc2)cc(OC)c1OC | -0.384 |
| COc1ccc(N2CCN(S(=O)(=O)Cc3ccccc3)CC2)cc1 | 0.217 |
| O=S(=O)(Cc1ccccc1)N1CCN(C/C=C/c2ccccc2)CC1 | 0.335 |
| CC(C)(C)C(=O)NC(=S)Nc1ccccc1F | 0.291 |
| CSC(=NCc1ccc(F)cc1)NS(=O)(=O)c1cccs1 | -0.639 |

| SMILES | z-score |
| --- | --- |
| CCOC(=O)c1ccc(CNC(=O)C2CCCCC2C(=O)OCC(F)(F)F)o1 (centres undefined) | -0.244 |
| O=C(N/N=C\c1cc(Br)c(Br)o1)c1cncc(Br)c1 | active: 9.73 |
| O=C(Nc1ccc2oc(-c3ccc4ccccc4c3)nc2c1)c1ccc2c(c1)OCCO2 | 0.784 |
| Cc1cc(C)cc(OC(=O)N2CCOCC2)c1 | 0.211 |
| COc1cccc(-n2c(SCc3c(C)noc3C)nnc2-c2cccc(S(=O)(=O)N(C)C)c2)c1 | -0.0855 |
| Cc1noc(C)c1S(=O)(=O)N1CCC(C(=O)Nc2ccccn2)CC1 | 0.333 |
| CCS(=O)(=O)N1CCC(C(=O)NCc2ccc(F)cc2Cl)CC1 | -0.101 |
| Nc1nc(-c2ccccc2)nn1C(=O)Cc1ccccc1 | -0.127 |
| O=C(c1cncc(Br)c1)N1CCc2ccccc2C1 | 0.292 |
| Cc1ccc(NC(=O)Cn2nnc(-c3ccccc3NC(=O)c3cccs3)n2)cc1 | -0.57 |
| CCc1nc(C#N)c(N2CCOCC2)o1 | -0.283 |
| C(=N\Nc1ncnc2sc3c(c12)CCC3)/c1cccs1 | -0.382 |
| O=c1cc2[nH]c3ccccc3c(=O)n2nc1-c1ccccc1 | -0.202 |
| N#Cc1nc(-c2ccco2)oc1NCCCn1ccnc1 | 1.15 |
| O=C(CSCc1ccccc1)Nc1ccc(F)c(F)c1 | 0.349 |
| Fc1ccc(-n2c(-c3cccs3)nc3nc4ccccc4nc32)cc1 | -0.4 |
| O=C(NCCCN1CCCC1=O)c1cncc(Br)c1 | -0.00979 |
| Cn1nc(C(F)(F)F)c(C(=O)Nc2ccc(C(F)(F)F)cc2)c1Cl | 0.147 |
| COc1ccc(/C=C2\C(=O)NCC(=O)N2Cc2ccccc2)cc1 | -0.0604 |
| O=C(CSc1nnnn1-c1ccccc1Cl)Nc1ccc2c(c1)OCCO2 | 0.438 |
| CCN(CC)S(=O)(=O)c1ccc(N=NC2=C(O)CCCC2=O)cc1 | -0.199 |
| CCOCC(O)CS(=O)Cc1ccccc1 (centres undefined) | 0.448 |
